Source: patent US20170088605A1
Numbering of substitutions follows the chain as printed.

B1: EBB-C1975-A7 (antibody)
heavy: QVQLVESGGGLVQPGGSLRLSCAASGFTVSRNYMSWVRQAPGKGLEWVSGIYSGGSTYYADSVKGRFTISRDYSKNTLSLQMNTLRVEDTAVYFCAREDEFWSGYSAGVDWGQGTLVTVSSASTKGPSVFPLAPSSKSTSGGTAALGCLVKDYFPEPVTVSWNSGALTSGVHTFPAVLQSSGLYSLSSVVTVPSSSLGTQTYICNVNHKPSNTKVDKRV[sequence of human IgG1 Fc omitted]
light: [sequence of about 100 residues omitted][sequence of about 100 residues omitted]
B2: EBB-C1975-E7 (antibody, human IgG1, kappa)
heavy: B1 heavy with Q1E, V5L, Q13R, L20V, S53G, S56R, D61E, S79F, V92L
light: DIQVTQSPSSLSASVGDRVTITCRASQSISSYLNWYQQEPGKAPKLLIYAASTLQTGVPSRFSGSGSGTDFTLTISSLQPEDFATYYCQQSYNTPRTFGQGTKVEIKRTVAAPSVFIFPPSDEQLKSGTASVVCLLNNFYPREAKVQWKVDNALQSGNSQESVTEQDSKDSTYSLSSTLTLSKADYEKHKVYACEVTHQGLSSPVTKSFNRGEC
B3: EBB-C1975-A3 (antibody)
heavy: B1 heavy with Q1E, S7T, S30R
light: [sequence of about 100 residues omitted][sequence of about 100 residues omitted]

Columns and labels:
[1] = molecular target: BKV serotype IV VLP (BK virus serotype IV), P14996; assay: ELISA on coated BKV serotype IV VLPs; conditions: remark: other sources report otherwise
[2] = molecular target: BKV serotype IV VP1 pentamer (BK virus serotype IV), P14996; assay: ELISA on coated BKV serotype IV VP1 pentamers; conditions: remark: other sources report otherwise

| Binder | IC50 [1] | IC50 [2] |
| --- | --- | --- |
| B1 | 0.081 nM | 0.078 nM |
| B2 | 0.044 nM | – |
| B3 | 0.045 nM | 0.064 nM |
